The values below come from paper PMC4336329 (PLoS ONE, 2015).

The whole screen tested about 310,000 compounds, of which about 14,000 (4.5%) showed an effect of 50% or more. The effect is printed as a negative number. Some of the results follow.
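Also: peak tail current of the secondary pulse compared with the same well before compound.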

Sequence of human ether-à-go-go-related gene (hERG) potassium channel (Q12809 whole entry, looked up): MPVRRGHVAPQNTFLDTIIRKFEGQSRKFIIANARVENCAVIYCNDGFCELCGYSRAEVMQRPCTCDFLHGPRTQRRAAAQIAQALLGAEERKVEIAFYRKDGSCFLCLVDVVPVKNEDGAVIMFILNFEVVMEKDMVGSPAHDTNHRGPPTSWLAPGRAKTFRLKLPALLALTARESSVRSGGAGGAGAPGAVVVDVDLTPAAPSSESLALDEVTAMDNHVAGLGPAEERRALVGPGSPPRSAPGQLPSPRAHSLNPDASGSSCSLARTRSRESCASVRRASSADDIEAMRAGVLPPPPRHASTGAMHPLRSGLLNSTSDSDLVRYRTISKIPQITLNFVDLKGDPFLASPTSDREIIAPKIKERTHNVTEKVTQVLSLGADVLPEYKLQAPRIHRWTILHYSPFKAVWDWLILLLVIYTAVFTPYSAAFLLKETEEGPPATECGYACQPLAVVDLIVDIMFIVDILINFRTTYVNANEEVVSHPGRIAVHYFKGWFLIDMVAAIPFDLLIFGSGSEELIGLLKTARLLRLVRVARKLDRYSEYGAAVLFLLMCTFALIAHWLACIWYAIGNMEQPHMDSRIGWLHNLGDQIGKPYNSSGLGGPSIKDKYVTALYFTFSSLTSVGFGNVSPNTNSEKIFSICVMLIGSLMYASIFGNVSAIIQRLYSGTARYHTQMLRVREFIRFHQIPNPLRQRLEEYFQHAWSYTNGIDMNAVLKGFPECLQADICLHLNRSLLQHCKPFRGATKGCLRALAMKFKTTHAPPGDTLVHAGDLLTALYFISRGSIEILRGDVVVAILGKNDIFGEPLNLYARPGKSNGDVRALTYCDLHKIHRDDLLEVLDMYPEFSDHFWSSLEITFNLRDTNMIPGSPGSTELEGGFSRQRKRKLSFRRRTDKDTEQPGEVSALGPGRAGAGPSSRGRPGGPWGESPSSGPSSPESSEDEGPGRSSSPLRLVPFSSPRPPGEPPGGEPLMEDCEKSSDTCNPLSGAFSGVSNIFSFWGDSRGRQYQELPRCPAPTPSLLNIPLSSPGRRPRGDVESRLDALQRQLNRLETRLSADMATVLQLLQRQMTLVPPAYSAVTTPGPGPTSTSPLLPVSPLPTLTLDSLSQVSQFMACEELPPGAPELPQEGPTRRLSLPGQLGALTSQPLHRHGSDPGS

This experiment concerns the target human ether-à-go-go-related gene (hERG) potassium channel (human, UniProt Q12809). Kind of experiment: primary screen, population patch clamp on CHO cells stably expressing hERG.
Regarding `Cc1ccc(/C=C/C2=NN(Cc3ccccc3Cl)C(=O)CC2)cc1`, the “hERG current change (%, negative = inhibition) at 10uM” value is recorded as -4.44%.

With `COc1ccc(N2CCN(C(C)C(=O)N(C)Cc3ccccc3)CC2)cc1` (stereo not shown), the “hERG current change (%, negative = inhibition) at 10uM” value was -17.3%.

Regarding `CCc1sc(C(=O)NNC(=O)CNC(=O)c2ccccc2F)cc1C`, the “hERG current change (%, negative = inhibition) at 10uM” value is -1.92%. On to `O=C(Nc1ccc(F)cc1F)c1noc2c1CCC2`, for which the “hERG current change (%, negative = inhibition) at 10uM” value was -0.989%. Turning to `O=C(O)CC(c1cccc2ccccc12)N1Cc2ccccc2C1=O` (stereo not shown), the “hERG current change (%, negative = inhibition) at 10uM” value is on record as 4.25%. Next, `COc1ccc(C(=O)Nc2nc3ccc4nc(C)sc4c3s2)cc1`: 9.89%. Next, `COc1ccc(NC(=O)CN(C)C(=O)Cc2ccsc2)cc1`: 13.8%; `CCc1c(C)sc2nc3c(C(=O)N4CCOCC4)cc(C(=O)c4ccccc4O)cn3c(=O)c12`: -10.7%. Next, `COc1cc(NC(=O)c2nccn2C)cc(C(=O)Nc2cccc(C(F)(F)F)c2)c1`: 5.31%; `CN(C)C(CNC(=S)Nc1cccc(Cl)c1)c1cccnc1` (stereo not shown): 8.69%; `O=C(NCc1ccncc1)C1CCCN(S(=O)(=O)Cc2ccccc2)C1` (stereo not shown): 3.48%.

In the case of `Cc1cccc(N=Cc2cc(Br)cc(Cl)c2O)c1`, the “hERG current change (%, negative = inhibition) at 10uM” value is recorded as 22%. Next, `CC(C)(C)NS(=O)(=O)c1ccc(OCC(=O)Nc2ccc3c(c2)OCCO3)cc1`: -0.883%.

For `Cc1oc2c(c1C(=O)NCc1cc(C(=O)O)co1)CCCC2`, the “hERG current change (%, negative = inhibition) at 10uM” value stood at 4.24%.

For `O=C(NCCc1ccccc1)c1ccc2c(c1)N(Cc1ccccc1)CCS2`, the “hERG current change (%, negative = inhibition) at 10uM” value is given as 8.75%. Then `Cc1c(Cl)cccc1NC(=O)C1Cc2ccccc2CN1C(=O)c1ccccc1` (stereo not shown), with -4.38%; and `CSc1ccccc1OCc1cc(C(=O)NC(C)c2cnn(C)c2)no1` (stereo not shown), with -19.4%; and `Cc1c(Cl)cccc1NC(=O)COC(=O)c1ccc(CN2CCCC2=O)cc1`, with -46%.

With `O=C(O)c1cccc(NS(=O)(=O)c2ccc3c(c2)OCCCO3)c1`, the “hERG current change (%, negative = inhibition) at 10uM” value stood at 23.3%. Then `O=C(CCN1C(=O)C2C3C=CC(C3)C2C1=O)N1CCN(c2cccc(Cl)c2)CC1` (stereo not shown), with -38.4%; and `CCc1ccc(C(=O)COC(=O)CNC(=O)c2cccs2)cc1`, with -6.77%; and `CCOc1ccc(NS(=O)(=O)c2cc(C(=O)N(CC)CC(=O)NCc3cccs3)ccc2C)cc1`, with -18.5%. Turning to `C/C=C(/C)C(=O)Nc1cccc(C2=NOC3(C2)C[C@@H](C(N)=O)N(C(=O)C2(C)CC2)C3)c1` (stereo partly shown), the “hERG current change (%, negative = inhibition) at 10uM” value is listed as 7.47%. Then `NC(=S)Nc1ccc(F)c(F)c1F`, with -7.17%; and `COc1ccc(C2=NN(c3nc4ccccc4s3)C(=O)C2)cc1`, with 5.36%; and `O=[N+]([O-])c1ccc(OCC2CC(c3ccccc3)=NO2)cc1` (stereo not shown), with 9.63%. `Cc1cc(C)c(C(=O)OCC(=O)Nc2cccc(S(=O)(=O)N3CCCCC3)c2)c(C)c1`: the “hERG current change (%, negative = inhibition) at 10uM” value is on record as -4.25%. Next, `Cc1cc(=O)oc2c3c(cc(OCC(=O)N[C@@H](Cc4ccccc4)C(=O)O)c12)OC(C)(C)CC3`: -0.905%; `Cc1ccc(-c2nc3ccccc3s2)cc1NC(=S)NC(=O)c1cccc2ccccc12`: -27.1%. Then `COc1ccc(N2CCN(C3CCCN(C(=O)c4ccoc4)C3)CC2)cc1` (stereo not shown), with -18.2%; and `Cc1ccc(CN2CCN(Cc3cc(=O)c4ccccc4[nH]3)CC2CCO)o1` (stereo not shown), with -30.8%.

For `CCNC(=O)COC(=O)/C=C/c1cccc(F)c1`, the “hERG current change (%, negative = inhibition) at 10uM” value is given as -10.3%.

Regarding `CCOC(=O)c1c(C)noc1-c1ccco1`, the “hERG current change (%, negative = inhibition) at 10uM” value was found to be 0.728%.

As to `Cc1c(C)n(CCc2ccccc2)c2ncnc(NCCCN(C)C)c12`, the “hERG current change (%, negative = inhibition) at 10uM” value is -58%.

For the compound `O=C(O)CCc1ccc(-c2ccccc2)n1NC(=O)c1sc2ccccc2c1Cl`, the “hERG current change (%, negative = inhibition) at 10uM” value came to 4.55%. Then `CCCOc1ccc(N2C(=O)CC(N3CCC(C(=O)OCC)CC3)C2=O)cc1` (stereo not shown), with -20.1%. Then `O=C1NC[C@H](Cc2ccc(O)cc2)N(CCc2cccc3ccccc23)C1=O`, with -4.26%.

Turning to `CC1CC(C)CN(C(=O)CSc2ccsc2[N+](=O)[O-])C1` (stereo not shown), the “hERG current change (%, negative = inhibition) at 10uM” value is -26.1%. Then `CC(C)C(=O)Nc1nnc(Cc2c[nH]c3ccccc23)s1`, with 28%; and `Cc1ccccc1-c1nc(C#N)c(N2CCCCC2)o1`, with 15%.

`CN(C)S(=O)(=O)N1CCC(n2nccc2NC(=O)CCc2ccccc2)CC1`: the “hERG current change (%, negative = inhibition) at 10uM” value was -4.77%. Take `O=C(COC(=O)/C=C/c1cccc([N+](=O)[O-])c1)NCCCN1CCCC1=O`: the “hERG current change (%, negative = inhibition) at 10uM” value is -9.61%.

`Cc1ccc(N2C(=O)CC3(CC4C=CC3C4)C2=O)cc1` (stereo not shown): the “hERG current change (%, negative = inhibition) at 10uM” value turned out to be 6.7%.
